Results reported in PubChem BioAssay AID686978 (National Center for Advancing Translational Sciences (NCATS), 2013).
In all, about 420,000 compounds went through this assay and about 64,000 (15%) were called active. This list was built around the results that the source calls inconclusive (neither active nor inactive); the mix of calls is not that of the screen. Calls come from the whole dose curve; as a rule, active = well fitted inhibition curve with a large enough effect; inconclusive = small, poorly fitted or top-dose-only effect; inactive = flat fitted curve, though single readings scatter. No potency is given beside an inconclusive call; the fits are too rough.

Test: qHTS for Inhibitors of human tyrosyl-DNA phosphodiesterase 1 (TDP1): qHTS in cells in absence of CPT; note: nearly all actives have a fitted effect of over 55% in size
Conditions: DT40 Tdp1-/- hTDP1 cells, no CPT, ATP luminescence, 48 h; activity change, negative = growth inhibition: at 46.2 µM (top of the series)
In short: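 No-CPT arm: Tdp1-/-;hTDP1 DT40 cells (400/well) plus compounds, incubated ≥48 hr at 37 °C. Readout CellTiter-Glo luminescence.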
% is set by controls: 0 for no effect and ±100 for the full control effect; potency is the fitted concentration of half-maximal effect; tags give direction and shape of the fitted curve.

| SMILES | Potency | activity change, negative = growth inhibition |
| --- | --- | --- |
| CCOc1cc(N2CCOCC2)c(OCC)cc1NC(=O)CN1CCCC(C)C1 (stereo unspecified) | inconclusive [inhibitor, single point] | – |
| COc1ccc(S(=O)(=O)Nc2c(C)n(C)n(-c3ccccc3)c2=O)cc1C(=O)O | – | inactive: 14.1% |
| O=C(COC(=O)c1ncc(Cl)c(Cl)c1Cl)NC(=O)NCc1ccccc1 | inconclusive [inhibitor, single point] | – |
| O=C(CNc1cccc2ccccc12)N/N=C/c1ccccn1 | inconclusive [inhibitor, single point] | – |
| CCc1ccc(NC(=O)c2ccc(F)c(S(=O)(=O)N3CCN(c4cc(C)ccc4C)CC3)c2)cc1 | inconclusive [inhibitor, partial curve, poor fit] | – |
| CCOc1ccccc1N1CCN(C(=O)c2ccc3[nH]c4c(c3c2)CCCC4)CC1 | inconclusive [inhibitor, single point] | – |
| CCOC(=O)c1c(CN(CC)CC)n(C)c2cc(Br)c(O)cc12 | inconclusive [inhibitor, full curve] | – |
| CC1CC(C)CN(C(=O)C2CCCN(S(=O)(=O)c3cnc[nH]3)C2)C1 (stereo unspecified) | – | inactive: 24.1% |
| OCCC1CN(Cc2ccc(-n3cccn3)cc2)CCN1Cc1ccccc1 (stereo unspecified) | inconclusive [inhibitor, partial curve, poor fit] | – |
| CCCN(CC1CC1)c1nc(N)c(C#N)c(CC#N)c1C#N | active: 18.4 µM | – |
| O=C(CCNC(=O)c1ccccc1Cl)Nc1ccc(Cl)c(C(F)(F)F)c1 | active: 23.1 µM | – |
| COCCn1c(=O)c(-c2ccc(OC)cc2)nc2cnc(OCc3ccccc3)nc21 | – | inactive: 14% |
| CCCNC(=O)Cn1cnc2sc(C(=O)NCCN(CC)CC)c(C)c2c1=O | – | inactive: -14.4% |
| CCC(=O)n1nc(-c2ccc(Cl)cc2)nc1NCc1ccccc1 | active: 16.4 µM | – |
| N#Cc1ccccc1NC1=CC(=O)CCC1 | – | inactive: -5.36% |
| Clc1ccc(-n2nnnc2-c2cnc(-c3ccncc3)nc2-c2cccs2)cc1 | inconclusive [inhibitor, single point] | – |
| Cc1ccccc1Nc1nnc(SCC2CCCCO2)s1 (stereo unspecified) | active: 18.4 µM | – |
| COc1ccc(OC)c(S(=O)(=O)Nc2cnc3ccccc3c2)c1 | active: 23.1 µM | – |
| Cc1c(C(=O)NCc2ccccc2Br)oc2ccc3c(c12)C(=O)CC(C)(C)O3 | active: 16.4 µM | – |
| O=C(COC(=O)CN1C(=O)C(=O)c2ccccc21)OCN1C(=O)c2ccccc2C1=O | inconclusive [inhibitor, single point] | – |
| CCCCN(C(=O)Cc1ccc2c(c1)OCCO2)c1c(N)n(CCC)c(=O)[nH]c1=O | – | inactive: 2.76% |
